Laboratory results from the RNAGym collection of RNA variant scans (doi:10.7554/elife.90254).
The source gives no read counts; variants with many changes may rest on few reads.

B1: LINE1-mini (parent)
chain: GGCAGAGCUCAACACAGCGUGGCAAAGUGGCUGUGGCUAGACUGCC

Variants of: B1
Assay: self-cleavage, relative activity (ratio to wild type); higher = more cleavage; in vitro, sequencing; the parent is a self-cleaving ribozyme
GGCAGAGAUCAACUCAGCGUGGCAAAGUGGCUGUGGCUAGACUGCU [C8A A14U C46U] gave a self-cleavage of 0.23. Work on GGCAGAGAUCAACACUGCGUGGCGAAGUGGCUGAGGCUAGACUGCC [C8A A16U A24G U34A] yielded a self-cleavage of 0.14. GGCAGAGAUCACCACAGCGUGGUAAAGUGGCUGUUUCUAGUCUGCC [C8A A12C C23U G35U G36U A41U] gave a self-cleavage of 0.1. With GGCAGAUCUCAACACAGCGUGGCAAAGUGGCUGCAGCUAGACUGCC [G7U U34C G35A] the self-cleavage was 0.09. GGCAGAGAUCAACACAGCGUGGCCAAGUGGCUGUGGCUAGAUUGCC [C8A A24C C42U] gave a self-cleavage of 0.12. For GGCAGAGAUCAACACAGCGUGGCUUAGUUGCUGUCGCUAGACUGCC [C8A A24U A25U G29U G35C], the self-cleavage was 0.05. GGCAGAGAUCGACACACCCUGGCAAAGUGGCUGUCGCUACACUGCC [C8A A11G G17C G19C G35C G40C] showed a self-cleavage of 0.02. With GGCAGAGAUCACCACAUCGUGGCAAAGUGGCUGUGACUAGACUGCC [C8A A12C G17U G36A] the self-cleavage was 0.02. GGCAGAGAUCAACACGGCGUGGCAAAGUCGCUGUGGCUAGACUGCC [C8A A16G G29C] gave a self-cleavage of 0.03. Work on GGCAGAGAUCGAAACAGCGUGGCAAAGUGUCUGUGGCUAAACUGCC [C8A A11G C13A G30U G40A] yielded a self-cleavage of 0.03. Variant GGCAGAGAUCACCACAGCGCGGCAAAGUGGCUGUGGCUAGACUGCC [C8A A12C U20C] has a self-cleavage of 0.03. Variant GGCAGAGAUCCAUACAGCGUGGCAAAGUCGCUGUUGCUGGACUGCC [C8A A11C C13U G29C G35U A39G] has a self-cleavage of 0. With GGCAGAGAUCCACACAGCUUGGCAAAGUGGCUGUGGCUAGACUGCC [C8A A11C G19U] the self-cleavage was 0.03. GGCAGAUCUCAACACAGCGUGGCAAAGUGGCGGGUGCUAGACAGGA [G7U U32G U34G G35U U43A C45G C46A] gave a self-cleavage of 0.04. GGCAGAGAUCAUCACAGCGUGGCUAAGUGGCUGUGGCUAGCCUGCC [C8A A12U A24U A41C] showed a self-cleavage of 0.06. GGCAGAGAUCAACUCAGCGGGGCAAAGUGGCUGUGGCCAGACUGCA [C8A A14U U20G U38C C46A] gave a self-cleavage of 0.22. With GGCAGAUCUCAACACAGCGUGGCAAAGUGGCUGUGGCCAGACUCCC [G7U U38C G44C] the self-cleavage was 0.07. Variant GGCAGAGAUCACCACAGCGUGGCAAAGUGGCCGUUGCUAGACUGCC [C8A A12C U32C G35U] has a self-cleavage of 0.05. GGCAGAGAUCAACCCAGCGUGGCAAAGUGGAUGUGGCUAGACUGCC [C8A A14C C31A] showed a self-cleavage of 0.15. Work on GGCAGAGAUCUGCACAGAGUCGCAUAGUGUCUGUGGCUAGACUGCC [C8A A11U A12G C18A G21C A25U G30U] yielded a self-cleavage of 0.01. Variant GGCAGAGAUCUACACAACGUGGCAAAGUGGCUGUGGCUAGACUGCC [C8A A11U G17A] has a self-cleavage of 0.03. With GGCAGAGAUCAACCCAGCGUGGCAAAGUGGCUGUGGCUAGAUUGCC [C8A A14C C42U] the self-cleavage was 0.05. GGCAGAGAUCAACUCAGCGUAGCAAAGUCGCUGUGGCCAGACUGCC [C8A A14U G21A G29C U38C] showed a self-cleavage of 0.19. GGCAGAUCUCAACACAGCGUGGCAAAGUGGCUGGUGCUAGACUGCC [G7U U34G G35U] gave a self-cleavage of 0.06. Work on GGCAGAGAUCACCACAGAGUGGCGCAGUGGCUGUGGCUAGACUGCC [C8A A12C C18A A24G A25C] yielded a self-cleavage of 0.01. For GGCAGAGAUCAUCACAGCGUGGCAAAAUGGCUGUGGCAAGACUGCC [C8A A12U G27A U38A], the self-cleavage was 0.02. Variant GGCAGAGAUCUACACAGCGUGUCAAAGUGGCUGUGGCUACACUGCC [C8A A11U G22U G40C] has a self-cleavage of 0.03. For GGCAGAUCUCAACACAGCGUGGCAAAGUGGCUGCGGCUAGACUAGC [G7U U34C G44A C45G], the self-cleavage was 0.03. Variant GGCAGAGAUCUACACAGCGUGGCAAAGUAGCUGUGGCUAGACUCCC [C8A A11U G29A G44C] has a self-cleavage of 0.01. GGCAGAGAUCAACACCACGUGGCAAAGUGGCUGUGGCUAGACUGCC [C8A A16C G17A] showed a self-cleavage of 0.08. GGCAGAGAUCAACACAGCGUGGCAGAGUGGCUGGGGCUAGACUGCC [C8A A25G U34G] gave a self-cleavage of 0.36. GGCAGAGAUCUACACAGCGUGUCAAAGUGGGUGUUGCUAGACUGCC [C8A A11U G22U C31G G35U] gave a self-cleavage of 0.01. For GGCAGAGAUCAACACAGCGUGGCUAAGUGGCUGUGGCUAUACUGCC [C8A A24U G40U], the self-cleavage was 0.31. Variant GGCAGAGAUCACCACAGCGUGGCAAAGUGGCGGUGGCGUCACUGCC [C8A A12C U32G U38G A39U G40C] has a self-cleavage of 0. Work on GGCAGAGAUCCACACAGCGUAUCAAAGUGGCUGUGGCGAGUCUGUC [C8A A11C G21A G22U U38G A41U C45U] yielded a self-cleavage of 0. Variant GGCAGAGAUCUACACAGCGUGGCAAAGUGGCUGUGGAUAGACUGCC [C8A A11U C37A] has a self-cleavage of 0.11. Work on GGCAGAGAUCACCACAGCGUGGCAAAGUGGCUGUGGCCAUACUACC [C8A A12C U38C G40U G44A] yielded a self-cleavage of 0.02. In the case of GGCAGAGAUCAACACUGCGUGGCACAGUGGCUGUGGCUAGACUGCC [C8A A16U A25C], the self-cleavage is reported as 0.11. GGCAGAGAUCCAAACAGCGUGGCAAUGUGGCUGUGGCUAGACUGCC [C8A A11C C13A A26U] gave a self-cleavage of 0.06. Variant GGCAGAGAUCAUCACAGCGUGGCAAAGUGGCUGUGGGUAGCCUGCC [C8A A12U C37G A41C] has a self-cleavage of 0.03. Work on GGCAGAGAUCAACACAGCGUGGCUAAGCGGCUGAGGCUAGACUGCC [C8A A24U U28C U34A] yielded a self-cleavage of 0.02. GGCAGAGAUCACCACAGCUUGGCAAAGUGGCUGUGGGUAGACUGCC [C8A A12C G19U C37G] showed a self-cleavage of 0. GGCAGAGAUCAACGCAGCGUGGCAAAGUGUCUGCGGCUAGACUGCC [C8A A14G G30U U34C] gave a self-cleavage of 0.03. For GGCAGAGAUCCACACAACGUGGCAAACUGGCGGUGGCUGGACUGCC [C8A A11C G17A G27C U32G A39G], the self-cleavage was 0. For GGCAGAGAUCAACACGGCAUGGCAAAGUGUCUGUGGCUAGACUGCC [C8A A16G G19A G30U], the self-cleavage was 0.11. With GGCAGAGAUCCACACAGCGUGGCAAAGUCGCUGUGCCUCGACUGCC [C8A A11C G29C G36C A39C] the self-cleavage was 0.02. Work on GGCAGAGAUCAGCAAAGCGUGGCAAAGUGGCUGUGGCUAGACUGCC [C8A A12G C15A] yielded a self-cleavage of 0.37. With GGCAGAGAUCAGCACAGCGUGGCACAGUGGAUGUGGCUAGACUGCC [C8A A12G A25C C31A] the self-cleavage was 0.37. GGCAGAGAUCAACACAGCGUGGCCAAGUCGCUGUGGCUAGACUGCC [C8A A24C G29C] showed a self-cleavage of 0.32. With GGCAGAUCUCAACACAGCGUGGCAAAGUGGCUGUGGCAAGCAUGCC [G7U U38A A41C C42A] the self-cleavage was 0.03. GGCAGAGAUCUACACAGCGUGGCAAAGUGUCUGUGGCUAGACUGGC [C8A A11U G30U C45G] showed a self-cleavage of 0.03. Variant GGCAGAGAUCAACUCAGCGUGGCAAAGUGGCUGUGGAUAGACUGCC [C8A A14U C37A] has a self-cleavage of 0.21. With GGCAGAUCUCAACACAGCGUGGCAAAGUGGCUGUGGCGAGACUGCA [G7U U38G C46A] the self-cleavage was 0. For GGCAGAGAUCAACCCAGCGUGGCAAAGUGGCUGUGGCUAGACAGCC [C8A A14C U43A], the self-cleavage was 0.27. Work on GGCAGAUCUCAACACAGCGUGGCAAAGUGGCAGUGGCUCGACUGCC [G7U U32A A39C] yielded a self-cleavage of 0.03. Variant GGCAGAGAUCAACUCAGCAUGGCAGAUUGGCUGUGGCUAGACUGCC [C8A A14U G19A A25G G27U] has a self-cleavage of 0.19.
